The values below come from publication PMC9911399, “Two distinct binding modes provide the RNA-binding protein RbFox with extraordinary sequence specificity”.

To fix the notation:
T1: RBFOX1 RRM (Homo sapiens, UniProt Q9NWB1 109-208)
T1 sequence: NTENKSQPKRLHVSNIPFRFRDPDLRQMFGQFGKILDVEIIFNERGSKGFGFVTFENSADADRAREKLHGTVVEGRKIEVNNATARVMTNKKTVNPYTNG

B1: AAAAGGU (DNA:RNA)
RNA: GGGAGACCGGAAUUCAGAUUGUCCAAAAGGUUUAAAUCCCGUCGUAGCCACCA
DNA 1: CAATCTGAATTCCGGTCTCCC
DNA 2: TGGTGGCTACGACGGGATT
B2: CAAUAAA (DNA:RNA)
RNA: B1 RNA with A25C, A28U, G29A, G30A, U31A
DNA 1: CAATCTGAATTCCGGTCTCCC
DNA 2: TGGTGGCTACGACGGGATT
B3: GUUGCUU (DNA:RNA)
RNA: B1 RNA with A25G, A26U, A27U, A28G, G29C, G30U
DNA 1: CAATCTGAATTCCGGTCTCCC
DNA 2: TGGTGGCTACGACGGGATT
B4: CACCCAC (DNA:RNA)
RNA: B1 RNA with A25C, A27C, A28C, G29C, G30A, U31C
DNA 1: CAATCTGAATTCCGGTCTCCC
DNA 2: TGGTGGCTACGACGGGATT
B5: GUGCCUA (DNA:RNA)
RNA: GGGAGACCGGAAUUCAGAUUGUCCGUGCCUAUUAAAUCCCGUCGUAGCCACCA
DNA 1: CAATCTGAATTCCGGTCTCCC
DNA 2: TGGTGGCTACGACGGGATT
B6: UCUACAC (DNA:RNA)
RNA: B1 RNA with A25U, A26C, A27U, G29C, G30A, U31C
DNA 1: CAATCTGAATTCCGGTCTCCC
DNA 2: TGGTGGCTACGACGGGATT
B7: CCAGCUC (DNA:RNA)
RNA: B5 RNA with G25C, U26C, G27A, C28G, A31C
DNA 1: CAATCTGAATTCCGGTCTCCC
DNA 2: TGGTGGCTACGACGGGATT
B8: AGACUAA (DNA:RNA)
RNA: B1 RNA with A26G, A28C, G29U, G30A, U31A
DNA 1: CAATCTGAATTCCGGTCTCCC
DNA 2: TGGTGGCTACGACGGGATT
B9: CUGAUUA (DNA:RNA)
RNA: B5 RNA with G25C, C28A, C29U
DNA 1: CAATCTGAATTCCGGTCTCCC
DNA 2: TGGTGGCTACGACGGGATT
B10: UGGACUC (DNA:RNA)
RNA: B5 RNA with G25U, U26G, C28A, A31C
DNA 1: CAATCTGAATTCCGGTCTCCC
DNA 2: TGGTGGCTACGACGGGATT
B11: AUCGUGA (DNA:RNA)
RNA: B1 RNA with A26U, A27C, A28G, G29U, U31A
DNA 1: CAATCTGAATTCCGGTCTCCC
DNA 2: TGGTGGCTACGACGGGATT
B12: CAAGGCC (DNA:RNA)
RNA: B1 RNA with A25C, A28G, G30C, U31C
DNA 1: CAATCTGAATTCCGGTCTCCC
DNA 2: TGGTGGCTACGACGGGATT
B13: GGUGGAA (DNA:RNA)
RNA: B5 RNA with U26G, G27U, C28G, C29G, U30A
DNA 1: CAATCTGAATTCCGGTCTCCC
DNA 2: TGGTGGCTACGACGGGATT
B14: CGACCGU (DNA:RNA)
RNA: B1 RNA with A25C, A26G, A28C, G29C
DNA 1: CAATCTGAATTCCGGTCTCCC
DNA 2: TGGTGGCTACGACGGGATT
B15: ACGCGGU (DNA:RNA)
RNA: B1 RNA with A26C, A27G, A28C
DNA 1: CAATCTGAATTCCGGTCTCCC
DNA 2: TGGTGGCTACGACGGGATT
B16: GGAGGUC (DNA:RNA)
RNA: B1 RNA with A25G, A26G, A28G, G30U, U31C
DNA 1: CAATCTGAATTCCGGTCTCCC
DNA 2: TGGTGGCTACGACGGGATT
B17: AAAAGUU (DNA:RNA)
RNA: B1 RNA with G30U
DNA 1: CAATCTGAATTCCGGTCTCCC
DNA 2: TGGTGGCTACGACGGGATT
B18: GAAAACU (DNA:RNA)
RNA: B1 RNA with A25G, G29A, G30C
DNA 1: CAATCTGAATTCCGGTCTCCC
DNA 2: TGGTGGCTACGACGGGATT
B19: AAGUGGC (DNA:RNA)
RNA: B1 RNA with A27G, A28U, U31C
DNA 1: CAATCTGAATTCCGGTCTCCC
DNA 2: TGGTGGCTACGACGGGATT
B20: UCGUACG (DNA:RNA)
RNA: B5 RNA with G25U, U26C, C28U, C29A, U30C, A31G
DNA 1: CAATCTGAATTCCGGTCTCCC
DNA 2: TGGTGGCTACGACGGGATT
B21: CCACAAU (DNA:RNA)
RNA: B1 RNA with A25C, A26C, A28C, G29A, G30A
DNA 1: CAATCTGAATTCCGGTCTCCC
DNA 2: TGGTGGCTACGACGGGATT
B22: UGACCAU (DNA:RNA)
RNA: B1 RNA with A25U, A26G, A28C, G29C, G30A
DNA 1: CAATCTGAATTCCGGTCTCCC
DNA 2: TGGTGGCTACGACGGGATT
B23: CGAUGCA (DNA:RNA)
RNA: B1 RNA with A25C, A26G, A28U, G30C, U31A
DNA 1: CAATCTGAATTCCGGTCTCCC
DNA 2: TGGTGGCTACGACGGGATT
B24: UUUCAAA (DNA:RNA)
RNA: B5 RNA with G25U, G27U, C29A, U30A
DNA 1: CAATCTGAATTCCGGTCTCCC
DNA 2: TGGTGGCTACGACGGGATT
B25: GACAUUG (DNA:RNA)
RNA: B1 RNA with A25G, A27C, G29U, G30U, U31G
DNA 1: CAATCTGAATTCCGGTCTCCC
DNA 2: TGGTGGCTACGACGGGATT
B26: CCAUUCC (DNA:RNA)
RNA: B1 RNA with A25C, A26C, A28U, G29U, G30C, U31C
DNA 1: CAATCTGAATTCCGGTCTCCC
DNA 2: TGGTGGCTACGACGGGATT
B27: UAGUGAA (DNA:RNA)
RNA: B1 RNA with A25U, A27G, A28U, G30A, U31A
DNA 1: CAATCTGAATTCCGGTCTCCC
DNA 2: TGGTGGCTACGACGGGATT
B28: ACCUAUA (DNA:RNA)
RNA: B5 RNA with G25A, U26C, G27C, C28U, C29A
DNA 1: CAATCTGAATTCCGGTCTCCC
DNA 2: TGGTGGCTACGACGGGATT
B29: GACUGUC (DNA:RNA)
RNA: B1 RNA with A25G, A27C, A28U, G30U, U31C
DNA 1: CAATCTGAATTCCGGTCTCCC
DNA 2: TGGTGGCTACGACGGGATT
B30: UAUUGUU (DNA:RNA)
RNA: B1 RNA with A25U, A27U, A28U, G30U
DNA 1: CAATCTGAATTCCGGTCTCCC
DNA 2: TGGTGGCTACGACGGGATT
B31: AAUGGCC (DNA:RNA)
RNA: B1 RNA with A27U, A28G, G30C, U31C
DNA 1: CAATCTGAATTCCGGTCTCCC
DNA 2: TGGTGGCTACGACGGGATT

Residue numbers refer to the chain shown, from its start. Some of the results follow.

This assay deals with T1, RBFOX1 RRM. As to the kind of experiment: EMSA; HiTS-Eq, 1 nM pool, 10 min; buffer printed only for the single-RNA assays: 10 mM Tris pH 7.5, 150 mM NaCl, 3.4 mM EDTA, 0.001% NP-40, 30 C. As to conditions: tags: His6 N-terminal (pET28a); label: 5' 32P. Put shortly: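 A pool of RNA with 7 randomized nucleotides, 5′-radiolabelled and with DNA-annealed flanks, was equilibrated at 1 nM for 10 min in 50 µL with purified RbFox RRM, wild type or mutant, across increasing protein concentrations. Free RNA was separated by 8% native PAGE, excised, reverse-transcribed, barcoded by PCR and sequenced. Relative association constants were obtained from read-count changes of each RNA species versus the control reaction and normalised to the cognate motif.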
In general terms: Mobility shift assays separate free from complexed probe on a gel.
In the case of B1, the binding signal was 0.00523 KA relative to UGCAUGU. As to B2, the binding signal is 0.00103 KA relative to UGCAUGU. Then B3, with 0.0233 KA relative to UGCAUGU; and B4, with 0.00185 KA relative to UGCAUGU. Then B5, with 0.0106 KA relative to UGCAUGU. As to B6, the binding signal was 0.00441 KA relative to UGCAUGU.

For B7, the binding signal is 0.00875 KA relative to UGCAUGU. Then B8, with 0.00288 KA relative to UGCAUGU.

For B9, the binding signal was 0.011 KA relative to UGCAUGU. In the case of B10, the binding signal is 0.0247 KA relative to UGCAUGU. Then B11, with 0.00772 KA relative to UGCAUGU; and B12, with 0.00854 KA relative to UGCAUGU.

Take B13: the binding signal was 0.00994 KA relative to UGCAUGU. For B14, the binding signal is 0.0105 KA relative to UGCAUGU. In the case of B15, the binding signal is 0.0119 KA relative to UGCAUGU. Then B16, with 0.00757 KA relative to UGCAUGU. Then B17, with 0.00166 KA relative to UGCAUGU; and B18, with 0.00592 KA relative to UGCAUGU; and B19, with 0.00766 KA relative to UGCAUGU. Then B20, with 0.0163 KA relative to UGCAUGU; and B21, with 0.00191 KA relative to UGCAUGU.

In the case of B22, the binding signal is 0.00768 KA relative to UGCAUGU.

With B23, the binding signal was 0.0226 KA relative to UGCAUGU.

For the molecule B24, the binding signal was 0.00521 KA relative to UGCAUGU. As for B25, the binding signal is 0.0146 KA relative to UGCAUGU.

For the molecule B26, the binding signal was 0.00241 KA relative to UGCAUGU. The same measure for B27: 0.00606 KA relative to UGCAUGU; for B28: 0.00108 KA relative to UGCAUGU; for B29: 0.0241 KA relative to UGCAUGU. On to B30, for which the binding signal is 0.0159 KA relative to UGCAUGU. Then B31, with 0.0138 KA relative to UGCAUGU.
